# Over roughly 33,000 sequences, “E-score (-0.5 to 0.5)” has its median near -0.041; the highest 2% begin near 0.37. The list shows a part of the results.
# Biological target: T1, Ecm22 (UniProt Q05958)
# T1 sequence: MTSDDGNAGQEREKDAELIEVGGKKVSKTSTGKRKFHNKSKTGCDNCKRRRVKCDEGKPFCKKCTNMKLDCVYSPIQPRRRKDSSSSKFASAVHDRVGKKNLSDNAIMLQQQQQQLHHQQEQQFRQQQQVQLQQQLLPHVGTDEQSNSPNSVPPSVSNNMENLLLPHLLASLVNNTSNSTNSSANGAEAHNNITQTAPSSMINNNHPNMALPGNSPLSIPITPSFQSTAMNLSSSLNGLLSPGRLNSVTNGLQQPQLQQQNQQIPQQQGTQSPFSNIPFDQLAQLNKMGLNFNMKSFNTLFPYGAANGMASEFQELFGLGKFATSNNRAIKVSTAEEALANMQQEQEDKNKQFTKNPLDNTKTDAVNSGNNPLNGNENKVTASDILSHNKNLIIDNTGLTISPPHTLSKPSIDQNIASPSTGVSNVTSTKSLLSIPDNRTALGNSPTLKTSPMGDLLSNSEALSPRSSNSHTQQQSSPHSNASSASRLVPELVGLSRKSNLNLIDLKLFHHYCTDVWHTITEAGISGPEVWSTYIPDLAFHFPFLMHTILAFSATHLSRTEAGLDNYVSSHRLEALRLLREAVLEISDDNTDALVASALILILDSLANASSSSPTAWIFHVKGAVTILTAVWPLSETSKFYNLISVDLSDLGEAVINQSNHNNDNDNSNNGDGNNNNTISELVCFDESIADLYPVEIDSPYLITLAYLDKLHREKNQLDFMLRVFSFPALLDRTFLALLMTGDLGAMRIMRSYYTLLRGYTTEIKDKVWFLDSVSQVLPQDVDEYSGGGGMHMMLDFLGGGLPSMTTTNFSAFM
# Experiment: PBM E-score (8-mer binding enrichment) (E-score (-0.5 to 0.5)); higher = stronger / more preferred TF binding; most listed sequences are background and not binding sites
# Conditions: protein concentration: 200 nM; construct: GST-full length
# Summary of the method: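 Yeast transcription factors carrying a GST tag, as full-length proteins or DNA-binding domains, were produced by PURExpress in vitro transcription/translation. About 100-200 nM protein was applied to universal all-10-mer Agilent arrays, double-stranded by primer extension on fresh or once-stripped slides. Bound protein was detected with fluorescent anti-GST, and scans were normalised with masliner. The Universal PBM Analysis Suite gave each ungapped eight-base word, pooled with its reverse complement, an E-score, a modified Wilcoxon-Mann-Whitney statistic.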
row,Sequence,PBM E-score
1,GACTGTGC,-0.0661
2,CCGACCCA,0.0621
3,AACAGTAC,0.159
4,CTTGAGGC,-0.225
5,AAGTACGC,0.0885
6,ATTGTACA,-0.0596
7,TTATGCAA,0.0525
8,ACGCTGGC,0.0814
9,ACTGAACG,0.334
10,GTGACAGA,-0.0918
11,CGAATCCG,0.227
12,CAGATATA,0.029
13,CACGCTCC,-0.227
14,ATTCAACA,0.117
15,AGCCTTTC,-0.136
16,GAAGTCAA,-0.0483
17,CCTTTAAC,0.143
18,AATCCTTA,-0.151
19,ATTCGCGA,0.292
20,CCCCCCCG,-0.179
21,AAAAGCCT,-0.337
22,ATAGTCAT,-0.125

row,Sequence,PBM E-score
1,GTGTATAA,-0.026
2,GCCCTCGC,0.262
3,ATGTGGCG,-0.0824
4,CCCGGGCC,-0.131
5,CACACTCA,-0.0867
6,AATAGGGT,-0.0879
7,CCGACGCC,0.0374
8,CCGACTGA,-0.0407
9,ATACACTA,-0.0519
10,AGCCTCCC,-0.249
11,ACACAAAG,0.139
12,TCGAGCGA,0.0676
13,CAAGTATG,-0.112
14,CCGCACAC,0.0629
15,CAAATCAA,-0.0191
16,CCTGATTA,-0.137
17,AGATCGGA,0.00079
18,AATTGTCC,-0.187
19,ACAGTACA,0.033
20,ATTTCCGG,0.107
21,GTGTGGCA,-0.334
22,ATCTTCAG,-0.0274

row,Sequence,PBM E-score
1,AAATTGGT,0.171
2,CACCTTGG,-0.238
3,ACGTGGGC,-0.134
4,GCAGGCTA,-0.286
5,CTGCCGGA,-0.181
6,ATTACGCC,-0.0761
7,ATGGCTTC,-0.268
8,ACTGAGAC,-0.137
9,CTGCGAGC,0.0428
10,TCGGTTAA,0.387
11,CGGGTGGA,0.0162
12,AAATATCC,0.103
13,ACGCCGAC,0.101
14,ATCTGTCA,-0.0758
15,AACCGAAT,0.284
16,GCAAGTAA,-0.172
17,CTCGATTC,0.0368
18,CCGGCTCA,-0.267
19,ATGCCGAG,0.257
20,AAGGCGCG,0.029
21,ATTCCAAT,-0.0645
22,ATGCAATC,-0.0621

row,Sequence,PBM E-score
1,CGTATGAA,0.415
2,ATGGACTA,-0.073
3,AAACCCGC,-0.125
4,CACACGAA,0.204
5,CTTCTTTA,-0.0983
6,ATACCTTC,-0.129
7,TGGTTACA,0.121
8,ACAGACTA,-0.0643
9,ACCAGAAG,-0.0736
10,ACCTTCAG,-0.0269
11,CAGGCCGC,-0.141
12,GTAAATTA,0.0338
13,CCTTATAG,-0.0105
14,ACCCTTCA,-0.151
15,TAGATTGA,0.0498
16,ACTAAGCC,-0.104
17,CCATATCG,0.113
18,GAAACAGA,0.0398
19,TACCCACA,-0.00174
20,TCTCCCCA,-0.188
